Source: the supplement of paper PMC6089552
Values joined by “and” are separate entries in the source; they are usually repeats but may differ in a detail not shown here. Identical values can stand only once. In all, about 3,200 compounds went through this assay and about 300 (9.4%) showed activity. The entries are a selection whose mix differs from that of the whole data set.

System: A673/TR/shEF
Test: cell viability (LOESS-normalised, relative to median of negative controls) (log2 ratio); higher = more viable cells (less compound effect), active = hit call of the paper (over 3 MAD below the median)
Conditions: treatment time: 72 h
Method in brief: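 For three days, A673/TR/shEF Ewing sarcoma cells in 384-well plates (1,500 per well) were treated with library compounds at two or more concentrations or with DMSO controls, after doxycycline had been added or withheld 24 h beforehand to induce EWS-FLI1 shRNA knockdown. Viability was read by CellTiter-Glo luminescence on an Envision reader. The data were LOESS-corrected per plate, divided by the median of negative controls and log2-transformed.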

[1] = 0.25 µM, library screen: screen1, EWS-FLI1 expression: high (no doxycycline)
[2] = 0.25 µM, library screen: screen1, EWS-FLI1 expression: low (doxycycline-induced shRNA knockdown)
[3] = 2.5 µM, library screen: screen1, EWS-FLI1 expression: high (no doxycycline)
[4] = 2.5 µM, library screen: screen1, EWS-FLI1 expression: low (doxycycline-induced shRNA knockdown)
[5] = 0.25 µM, library screen: screen2, EWS-FLI1 expression: high (no doxycycline)
[6] = 0.25 µM, library screen: screen2, EWS-FLI1 expression: low (doxycycline-induced shRNA knockdown)
[7] = 2.5 µM, library screen: screen2, EWS-FLI1 expression: high (no doxycycline)
[8] = 2.5 µM, library screen: screen2, EWS-FLI1 expression: low (doxycycline-induced shRNA knockdown)
[9] = 2.8 µM, library screen: screen3, EWS-FLI1 expression: high (no doxycycline)
[10] = 2.8 µM, library screen: screen3, EWS-FLI1 expression: low (doxycycline-induced shRNA knockdown)
[11] = 8.3 µM, library screen: screen3, EWS-FLI1 expression: high (no doxycycline)
[12] = 8.3 µM, library screen: screen3, EWS-FLI1 expression: low (doxycycline-induced shRNA knockdown)
[13] = 25 µM, library screen: screen3, EWS-FLI1 expression: high (no doxycycline)
[14] = 25 µM, library screen: screen3, EWS-FLI1 expression: low (doxycycline-induced shRNA knockdown)
[15] = 0.103 µM, library screen: screen3, EWS-FLI1 expression: high (no doxycycline)
[16] = 0.103 µM, library screen: screen3, EWS-FLI1 expression: low (doxycycline-induced shRNA knockdown)
[17] = 0.308 µM, library screen: screen3, EWS-FLI1 expression: high (no doxycycline)
[18] = 0.308 µM, library screen: screen3, EWS-FLI1 expression: low (doxycycline-induced shRNA knockdown)
[19] = 0.926 µM, library screen: screen3, EWS-FLI1 expression: high (no doxycycline)
[20] = 0.926 µM, library screen: screen3, EWS-FLI1 expression: low (doxycycline-induced shRNA knockdown)

Measured: cell viability (log2)

COC(=O)C[C@H]1C(C)(C)C2(Cl)O[C@@]34CC2C(=O)[C@]1(C)C3CC[C@]1(C)C4=CC(=O)O[C@H]1c1ccoc1 (some centres undefined)
inactive: [1] 0.0526 | [2] 0.0775 | [3] 0.126 | [4] 0.163

CCOC(=O)C1=C(C)NC(=S)NC1c1cccc(O)c1 (centres undefined)
inactive: [5] 0.183 | [6] 0.134 | [7] 0.103 | [8] 0.054

CC[C@H]1OC(=O)[C@H](C)[C@@H](O[C@H]2C[C@@](C)(OC)[C@@H](O)[C@H](C)O2)[C@H](C)[C@@H](O[C@@H]2O[C@H](C)C[C@H](N(C)C)[C@H]2O)[C@](C)(O)C[C@@H](C)CN(C)[C@H](C)[C@@H](O)[C@]1(C)O
inactive: [1] 0.0317 | [2] 0.0658 | [3] 0.122 | [4] 0.0894

CC1CCC2(CO)CCC3(C)C(=CCC4C5(C)CCC(O)C(C)(C)C5CCC43C)C2C1C (centres undefined)
inactive: [1] 0.00774 | [2] -0.0265 | [3] 0.0749 | [4] 0.092

CCOC(=O)C(Cc1ccc(O)cc1)NC(C)=O (centres undefined)
inactive: [1] 0.139 | [2] -0.0191 | [3] 0.0818 | [4] -0.000428

COc1ccc2c(c1)c(CC(=O)O)c(C)n2Cc1ccc(F)cc1
inactive: [5] 0.088 | [6] 0.0679 | [7] 0.0932 | [8] 0.0469

O=C(/C=C/c1cccc(S(=O)(=O)Nc2ccccc2)c1)NO
active: [9] -0.399 | [10] -0.113 | [11] -1.47 | [12] -0.52 | [13] -4.33 | [14] -2.11

NC[C@H]1O[C@H](O[C@H]2[C@H](O)[C@@H](O[C@H]3O[C@H](CO)[C@@H](O)[C@H](N)[C@H]3O)[C@H](N)C[C@@H]2N)[C@H](N)C[C@@H]1O
inactive: 0.025 µM, library screen: screen2, EWS-FLI1 expression: high (no doxycycline) -0.0103 | 0.025 µM, library screen: screen2, EWS-FLI1 expression: low (doxycycline-induced shRNA knockdown) 0.0337 | [1] 0.0322 | [2] 0.0135 | [5] 0.116 | [6] -0.00719 | [3] 0.0595 | [4] 0.0531 | [7] 0.136 | [8] 0.0663 | 25 µM, library screen: screen2, EWS-FLI1 expression: high (no doxycycline) 0.174 | 25 µM, library screen: screen2, EWS-FLI1 expression: low (doxycycline-induced shRNA knockdown) 0.0421

CNC(=O)c1c(F)cccc1Nc1nc(Nc2cc3c(cc2OC)CCN3C(=O)CN(C)C)nc2[nH]ccc12
inactive: [15] -0.00474 | [16] 0.0229 | [18] -0.0133 | [20] -0.047
active: [17] -0.215 | [19] -0.468 | [9] -0.729 | [10] -0.119 | [11] -0.785 | [12] -0.103 | [13] -1.04 | [14] -0.185

COc1ccc2c(c1)c(CC(=O)O)c(C)n2C(=O)c1ccccc1
inactive: [5] 0.183 | [6] 0.175 | [7] 0.131 | [8] 0.14

C[C@@H]1CCC2[C@@H](C)[C@@H](O)O[C@@H]3OC4(C)CC[C@@H]1[C@@]23OO4 (some centres undefined)
inactive: [1] 0.104 | [2] 0.00583 | [3] 0.029 | [4] -0.122

COCCOC(=O)C1=C(C)NC2=C(C(=O)CCC2)C1c1ccc(C)s1 (centres undefined)
inactive: [1] -0.0698 | [2] 0.0631 | [3] 0.0308 | [4] 0.207

COc1cc(OC)c2ccc(=O)oc2c1
inactive: [1] 0.111 | [2] 0.0194 | [3] 0.0761 | [4] -0.0247

CNC(=O)c1ccc(N2C(=S)N(c3ccc(C#N)c(C(F)(F)F)c3)C(=O)C2(C)C)cc1F
inactive: [15] -0.0464 | [16] 0.0923 | [17] 0.0275 | [18] 0.00942 | [19] 0.025 | [20] 0.045 | [9] 0.00719 | [10] 0.00621 | [11] -0.0193 | [12] 0.00651 | [13] 0.0274 | [14] -0.0592

O=C(CCBr)N1CCN(C(=O)CCBr)CC1
inactive: [1] 0.186 | [2] 0.0266 | [3] 0.134 | [4] 0.0433

CCCCC1C(=O)N(c2ccccc2)N(c2ccc(O)cc2)C1=O (centres undefined)
active: [3] -0.129
inactive: [1] 0.139 | [2] 0.0945 | [4] 0.2

COc1cc2nc(N3CCN(C(=O)C4COc5ccccc5O4)CC3)nc(N)c2cc1OC (centres undefined)
inactive: [15] 0.124 | [16] 0.115 | [5] 0.233 | [6] 0.0757 | [17] 0.0704 | [18] 0.0817 | [19] 0.118 | [20] 0.0497 | [7] 0.0767 | [8] 0.094 | [9] 0.0683 | [10] 0.00171 | [11] 0.111 | [12] 0.0618 | [13] 0.0496 | [14] 0.0586

CC(=O)Nc1ccc(OC(=O)c2ccccc2O)cc1
inactive: [1] 0.116 | [2] 0.0261 | [3] 0.151 | [4] 0.112

COC(=O)C[C@H]1C(C)(C)C(OC)=C2CC3=C4CC(=O)O[C@@H](c5ccoc5)[C@]4(C)CCC3[C@@]1(C)C2=O (some centres undefined)
inactive: [1] 0.0817 | [2] 0.1 | [3] 0.101 | [4] 0.109

COC(=O)C[C@H]1C2(C)CC34OC5(C)O[C@@]6([C@H](OC(C)=O)C(OC(C)=O)[C@]7(C)C(/C(=C(/O)C(C)C)C(=O)O[C@H]7c7ccoc7)[C@@]6(O5)[C@H](OC(C)=O)[C@@]3(O)C2OC(=O)C(C)C)[C@]14C (some centres undefined)
inactive: [1] -0.0155 | [2] 0.0666 | [3] 0.0766 | [4] 0.119

Cc1cc(C(C)(C)C)cc(C)c1CC1=NCCN1
inactive: [1] 0.13 | [2] 0.118 | [5] 0.239 | [6] 0.0958 | [3] 0.164 | [4] 0.17 | [7] 0.231 | [8] 0.0544

CCN(CCCCOC(=O)c1ccc(OC)c(OC)c1)C(C)Cc1ccc(OC)cc1 (centres undefined)
inactive: [1] 0.13 | [2] 0.128 | [3] 0.198 | [4] 0.205

O=c1[nH]ccc2c(O)cccc12
inactive: [5] 0.128 | [6] 0.0644 | [7] 0.117 | [8] 0.0876

O=P(O)(O)C(O)(Cn1ccnc1)P(=O)(O)O
inactive: [15] 0.0136 | [16] 0.138 | [17] 0.165 | [18] 0.116 | [19] 0.193 | [20] 0.0827 | [9] 0.164 | [10] 0.174 | [11] 0.23 | [12] 0.0896 | [13] 0.262 | [14] 0.113

O=C(c1cc(O)c(O)c([N+](=O)[O-])c1)c1ccccc1F
inactive: [5] 0.0844 | [6] 0.0601 | [7] 0.153 | [8] 0.129

CC(=O)O[C@@H]1CC(=O)[C@@]2(C)C(CC(=O)[C@]3(C)C2CC[C@@]2(C)[C@H](c4ccoc4)OC(=O)C4OC423)C1(C)C (some centres undefined)
inactive: [1] 0.122 | [2] 0.0336 | [3] 0.0891 | [4] 0.0361

CCN(CC)CCOCCOC(=O)C1(c2ccccc2)CCCC1
inactive: [1] 0.117 | [2] 0.021 | [5] 0.157 | [6] 0.127 | [3] 0.0781 | [4] 0.0809 | [7] 0.0944 | [8] 0.064

Nc1nc(=O)n([C@@H]2CS[C@H](CO)O2)cc1F
inactive: [15] 0.192 | [16] 0.0112 | [17] 0.127 | [18] 0.0608 | [19] 0.143 | [20] 0.0726 | [9] 0.139 | [10] 0.0596 | [11] 0.0605 | [12] 0.0396 | [13] 0.0881 | [14] 0.154

COc1ccc(Cl)cc1C(=O)NCCc1ccc(S(=O)(=O)NC(=O)NC2CCCCC2)cc1
inactive: [15] 0.115 | [16] 0.0621 | [1] 0.0607 | [2] 0.0399 | [5] 0.171 | [6] 0.0382 | [17] 0.175 | [18] 0.0954 | [19] 0.104 | [20] 0.103 | [3] 0.0749 | [4] 0.0806 | [7] 0.0699 | [8] 0.0189 | [9] 0.125 | [10] 0.0778 | [11] 0.113 | [12] 0.0685 | [13] 0.0907 | [14] 0.0579

CC#C[C@]1(O)CC[C@H]2[C@@H]3CCC4=CC(=O)CCC4=C3[C@@H](c3ccc(N(C)C)cc3)C[C@@]21C
inactive: [5] 0.155 | [6] 0.0864 | [7] 0.139 | [8] 0.0675

C=C(C)C1Cc2c(cc3oc(CO)cc(=O)c3c2O)O1 (centres undefined)
inactive: [1] 0.0482 | [2] -0.012 | [3] 0.067 | [4] 0.013

CCCCC(CC)CN=C(N)NC(N)=NCCCCCCN=C(N)NC(N)=NCC(CC)CCCC (centres undefined)
inactive: [1] 0.103 and 0.0973 | [2] 0.044 and 0.0691 | [3] 0.127 and 0.022 | [4] 0.0795 and 0.0454

Cn1cc(C(F)(F)F)nc1-c1ccc(OCC(O)CNCCOc2ccc(O)c(C(N)=O)c2)cc1 (centres undefined)
inactive: [5] 0.106 | [6] 0.126 | [7] 0.173 | [8] 0.0898

CN(C(=O)CN(CCO)CC(=O)N(C)C(C)(C)Cc1ccccc1)C(C)(C)Cc1ccccc1
inactive: [1] 0.105 | [2] 0.0799 | [3] 0.108 | [4] 0.0622
